Laboratory results from paper PMC4336329 (PLoS ONE, 2015).
Hit rate of the full screen: of about 310,000 compounds, about 14,000 (4.5%) showed an effect of 50% or more. The effect is printed as a negative number. The list shows a part of the results.

molecular target: human ether-à-go-go-related gene (hERG) potassium channel (human, UniProt Q12809); assay: primary screen, population patch clamp on CHO cells stably expressing hERG
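Also: peak tail current of the secondary pulse compared with the same well before compound.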

human ether-à-go-go-related gene (hERG) potassium channel, sequence (Q12809 whole entry, looked up): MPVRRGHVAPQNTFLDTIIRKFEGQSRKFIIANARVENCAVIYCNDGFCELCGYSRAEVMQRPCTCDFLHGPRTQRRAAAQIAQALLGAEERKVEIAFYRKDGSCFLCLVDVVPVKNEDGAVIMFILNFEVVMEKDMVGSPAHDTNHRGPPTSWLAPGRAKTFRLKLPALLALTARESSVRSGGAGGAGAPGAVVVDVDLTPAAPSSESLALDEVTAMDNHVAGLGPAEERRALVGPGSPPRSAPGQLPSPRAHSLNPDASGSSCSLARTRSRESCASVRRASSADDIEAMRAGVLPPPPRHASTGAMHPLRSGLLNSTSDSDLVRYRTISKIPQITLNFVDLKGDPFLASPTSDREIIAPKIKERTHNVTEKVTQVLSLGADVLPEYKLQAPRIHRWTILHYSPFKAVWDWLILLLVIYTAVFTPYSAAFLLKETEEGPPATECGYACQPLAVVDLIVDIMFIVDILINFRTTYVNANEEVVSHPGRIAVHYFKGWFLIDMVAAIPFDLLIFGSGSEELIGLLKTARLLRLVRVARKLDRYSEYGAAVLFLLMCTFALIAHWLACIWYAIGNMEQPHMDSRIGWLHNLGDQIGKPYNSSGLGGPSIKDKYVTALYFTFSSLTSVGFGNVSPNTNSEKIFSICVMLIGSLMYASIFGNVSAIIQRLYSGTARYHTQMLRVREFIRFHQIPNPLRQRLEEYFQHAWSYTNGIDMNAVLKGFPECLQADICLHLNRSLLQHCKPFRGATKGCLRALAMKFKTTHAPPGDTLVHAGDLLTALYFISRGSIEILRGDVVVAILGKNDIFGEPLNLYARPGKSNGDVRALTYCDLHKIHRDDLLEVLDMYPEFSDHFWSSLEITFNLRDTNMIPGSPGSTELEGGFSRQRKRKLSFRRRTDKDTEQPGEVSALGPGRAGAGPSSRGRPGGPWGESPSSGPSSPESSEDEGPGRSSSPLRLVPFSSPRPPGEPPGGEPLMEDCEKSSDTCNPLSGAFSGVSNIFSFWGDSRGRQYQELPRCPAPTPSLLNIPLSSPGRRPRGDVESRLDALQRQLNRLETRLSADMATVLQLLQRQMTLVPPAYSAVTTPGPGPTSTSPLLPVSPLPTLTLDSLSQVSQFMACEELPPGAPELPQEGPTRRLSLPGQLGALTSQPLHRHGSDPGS

Compared with `Cc1ccc(C2c3c(oc4ccccc4c3=O)C(=O)N2c2nnc(C(C)C)s2)o1` (centres unmarked), `COc1ccccc1N1C(=O)c2cccc3c(N(C)CCO)ccc(c23)C1=O` is higher in “hERG current change (%, negative = inhibition) at 10uM” value: 1.99% for the first, 5.75% for the second.

Compared with `COCCN(CCOC)CC(O)COC(c1ccccc1)c1ccccc1` (centres unmarked), `CC(C)NC(=O)Cn1cc(C(=O)COc2ccccc2)c2ccccc21` is higher in “hERG current change (%, negative = inhibition) at 10uM” value: -35.9% for the first, 14% for the second.

Going from `S=C(NCc1ccccc1)N1CCN(C2CCCCC2)CC1` to `CCNC(=S)N1CCC(c2nc3ccccc3s2)CC1`, the “hERG current change (%, negative = inhibition) at 10uM” value rises from -62.6% to -25.7%.

First: O=C(NCC1CCCO1)c1ccc(COc2ccc(F)cc2)o1 (centres unmarked)
Second: O=C(CCS(=O)(=O)c1ccc(F)cc1)N1CCOCC1
The “hERG current change (%, negative = inhibition) at 10uM” value of the first is higher: -5.59% for the first, -38% for the second.

Going from `Cc1ccnc(SCC(=O)Nc2oc(-c3ccccc3)c(-c3ccccc3)c2C#N)n1` to `CC1Cc2ccccc2N1Cc1cc(=O)c(OCC(=O)Nc2ccccc2)co1` (centres unmarked), the “hERG current change (%, negative = inhibition) at 10uM” value falls from 13.9% to -8.75%.

First: CC(C)OCCCNC(=O)C1CCN(S(=O)(=O)N2CCCCC2)CC1
Second: CC(C)(C)OC(=O)N1CCC(C(=O)N[C@@H](Cc2ccccc2)C(=O)O)CC1
The “hERG current change (%, negative = inhibition) at 10uM” value of the first is higher: 15% for the first, 4.88% for the second.

Going from `CCOC(=O)C1=C(CSc2nc3c(cc2C#N)CN(C)CC3)OC(N)=C(C#N)C1c1ccccc1` (centres unmarked) to `Cc1cc2c(c(=O)n1CCN(C)C)C(c1ccc(Br)cc1)C(C#N)=C(N)O2` (centres unmarked), the “hERG current change (%, negative = inhibition) at 10uM” value falls from -10.8% to -58.5%.

First: CCOCCCN(C(=O)CNC(=O)c1ccco1)C(C(=O)NC1CCCC1)c1ccccc1C (centres unmarked)
Second: CCCCn1nc2cc(C(=O)NCc3ccccc3)ccc2c1OCC
The “hERG current change (%, negative = inhibition) at 10uM” value of the first is higher: 20.6% for the first, -14.1% for the second.

Compared with `Cc1ccc(S(=O)(=O)N2CCCC(C(=O)NC3=NCCS3)C2)cc1` (centres unmarked), `O=C(C1CCCO1)N1CCN(S(=O)(=O)c2ccc(Cl)cc2)CC1` (centres unmarked) is lower in “hERG current change (%, negative = inhibition) at 10uM” value: 10.2% for the first, -15.6% for the second.

First: O/C(=C\c1ccc2ccccc2n1)c1ccncc1
Second: O=C(Nc1nnc(-c2ccncc2)o1)c1ccccc1
The “hERG current change (%, negative = inhibition) at 10uM” value of the first is lower: -13.6% for the first, 8.79% for the second.

First: O=C(c1ccccc1)c1cccs1
Second: O=C(OCCc1cc2ccccc2c(=O)o1)c1cccs1
The “hERG current change (%, negative = inhibition) at 10uM” value of the first is higher: 7.22% for the first, -1.33% for the second.

Compared with `O[C@@H]1COC(Nc2ccc(N=Nc3ccccc3)cc2)C[C@@H]1O` (some centres unmarked), `COC(=O)[C@H]1Cc2c([nH]c3ccccc23)[C@H](c2ccccc2)N1` is lower in “hERG current change (%, negative = inhibition) at 10uM” value: 13.6% for the first, 5.76% for the second.

First: CCCN(C(=O)c1cccc(S(=O)(=O)N2CCCc3ccccc32)c1)C1CCS(=O)(=O)C1 (centres unmarked)
Second: CCN(CC)CCn1c(SCC(=O)Nc2ccc3c(c2)CCC3)nc2ccccc2c1=O
The “hERG current change (%, negative = inhibition) at 10uM” value of the first is higher: -24.3% for the first, -83% for the second.

First: COc1cc(CCC(=O)OCC(=O)N2CCc3ccccc32)cc(OC)c1OC
Second: COc1ccc(OC)c(NC(=O)COC(=O)c2c3c(nc4ccccc24)CCCC3)c1
The “hERG current change (%, negative = inhibition) at 10uM” value of the first is higher: 23.7% for the first, 1.03% for the second.

Compared with `CCCCn1nnnc1SCC(=O)Nc1ccc2c(c1)OCO2`, `O=C(Nc1nnc(-c2ccc3c(c2)OCCO3)o1)C1CCCCC1` is higher in “hERG current change (%, negative = inhibition) at 10uM” value: 2.41% for the first, 21.3% for the second.

First: Cc1ccc(SCc2nn(C)c(Cl)c2C=O)cc1
Second: Cc1cc(C)nc(NS(=O)(=O)c2ccc(NC(=O)c3ccc(O)cc3O)cc2)n1
The “hERG current change (%, negative = inhibition) at 10uM” value of the first is lower: -46.9% for the first, 17.1% for the second.

First: COc1cccc(NC(=O)CCCn2c(=O)[nH]c3ccccc3c2=O)c1
Second: COc1ccc(/C=N/NC(=O)CNC(=O)COc2ccccc2)cc1
The “hERG current change (%, negative = inhibition) at 10uM” value of the first is higher: 4.65% for the first, -4.02% for the second.

First: COc1ccc(NC(=O)c2cn(C)c(=O)c3cc(OC)c(OC)cc23)cc1OC
Second: Cc1cc(OCC(=O)Nc2ccc(S(=O)(=O)N3CCN(C)CC3)cc2)ccc1Br
The “hERG current change (%, negative = inhibition) at 10uM” value of the first is higher: 13.5% for the first, -22.3% for the second.

First: O=C(Nc1ccc(Cl)cc1)c1cc2nc(C3CC3)cc(C(F)(F)F)n2n1
Second: CC(Oc1ccccc1Cl)C(=O)Nc1ccc(S(=O)(=O)Nc2nccs2)cc1 (centres unmarked)
The “hERG current change (%, negative = inhibition) at 10uM” value of the first is higher: 4.16% for the first, -0.857% for the second.

First: CCOc1ccc(Nc2nc(Nc3ccc(O)cc3)nc(C)c2[N+](=O)[O-])cc1
Second: Cc1ccc(NS(=O)(=O)c2ccc(N/N=C/c3ccccc3OCC(=O)O)c([N+](=O)[O-])c2)c(C)c1
The “hERG current change (%, negative = inhibition) at 10uM” value of the first is higher: 8.07% for the first, 6.96% for the second.

First: CCNC(=S)N(Cc1cc2cccc(C)c2[nH]c1=O)C1CCCC1
Second: CCCCCCn1c(O)c(C=NCCCn2ccnc2)c(=O)[nH]c1=O
The “hERG current change (%, negative = inhibition) at 10uM” value of the first is higher: 2.25% for the first, -16.3% for the second.

First: CCCCNc1cc(=O)n(C)c(=O)n1C
Second: COc1ccc(C(=O)NC(=S)NNC(=O)c2ccc(NC(=O)C(C)C)cc2)cc1
The “hERG current change (%, negative = inhibition) at 10uM” value of the first is lower: 4.02% for the first, 26.2% for the second.
